In all, about 310,000 compounds went through this assay and about 2,200 (0.71%) showed an effect of 50% or more. The effect is printed as a negative number. The list shows a part of the results.
Each compound was assayed against human ether-à-go-go-related gene (hERG) potassium channel (human, UniProt Q12809) (assay: primary screen, population patch clamp on CHO cells stably expressing hERG).
human ether-à-go-go-related gene (hERG) potassium channel, sequence (Q12809 whole entry, looked up): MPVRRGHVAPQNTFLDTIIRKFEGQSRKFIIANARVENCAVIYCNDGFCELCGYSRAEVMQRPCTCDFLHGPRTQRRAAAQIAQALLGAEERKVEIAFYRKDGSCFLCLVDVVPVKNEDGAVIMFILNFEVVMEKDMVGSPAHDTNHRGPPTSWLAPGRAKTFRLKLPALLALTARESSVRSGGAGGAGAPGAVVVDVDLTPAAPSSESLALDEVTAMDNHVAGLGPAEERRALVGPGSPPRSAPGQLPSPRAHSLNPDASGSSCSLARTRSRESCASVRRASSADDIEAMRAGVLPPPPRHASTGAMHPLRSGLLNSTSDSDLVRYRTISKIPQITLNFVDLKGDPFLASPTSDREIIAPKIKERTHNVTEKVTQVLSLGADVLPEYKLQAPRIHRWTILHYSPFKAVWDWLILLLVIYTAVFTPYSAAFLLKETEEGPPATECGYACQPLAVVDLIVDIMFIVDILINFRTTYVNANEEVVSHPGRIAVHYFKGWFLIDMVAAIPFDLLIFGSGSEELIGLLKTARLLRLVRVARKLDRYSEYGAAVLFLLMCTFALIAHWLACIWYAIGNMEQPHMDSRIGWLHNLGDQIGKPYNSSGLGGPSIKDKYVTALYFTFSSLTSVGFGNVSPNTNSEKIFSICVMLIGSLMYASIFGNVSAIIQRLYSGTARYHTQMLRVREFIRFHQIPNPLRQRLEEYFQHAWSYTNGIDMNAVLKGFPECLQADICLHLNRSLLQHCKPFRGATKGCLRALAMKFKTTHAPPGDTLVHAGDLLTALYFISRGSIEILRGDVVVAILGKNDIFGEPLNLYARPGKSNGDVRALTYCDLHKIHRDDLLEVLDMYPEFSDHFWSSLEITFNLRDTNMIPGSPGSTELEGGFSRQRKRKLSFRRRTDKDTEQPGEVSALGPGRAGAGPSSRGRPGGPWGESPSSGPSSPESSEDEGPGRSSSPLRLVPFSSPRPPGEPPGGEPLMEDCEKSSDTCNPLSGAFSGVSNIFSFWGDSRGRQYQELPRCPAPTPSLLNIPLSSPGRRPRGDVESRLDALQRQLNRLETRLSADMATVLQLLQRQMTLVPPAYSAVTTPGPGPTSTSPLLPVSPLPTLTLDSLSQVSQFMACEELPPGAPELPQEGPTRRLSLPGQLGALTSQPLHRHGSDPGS

SMILES | hERG current change (%, negative = inhibition) at 1uM
CN(Cc1ccccc1)c1nc2c(c(=O)[nH]c(=O)n2C)n1Cc1ccccc1 | -0.783%
CC(=O)c1cccc(NC(=O)COC(=O)C2=COCCO2)c1 | 5.89%
Cc1ccc(CN(C)C(=O)c2cccc(S(=O)(=O)N3CCCC3)c2)cc1 | 9.28%
O=C1CC[C@H](O)CCN1[C@H](CSc1ccc(Br)cc1)Cc1ccccc1 | 10.3%
Cc1ccc(C)c(S(=O)(=O)N2CCCN(C)CC2)c1 | 6.2%
COc1ccc(CCNC(=O)c2ccc(CNS(=O)(=O)c3ccc(C(C)(C)C)cc3)cc2)cc1OC | 8.5%
COc1ccc([N+](=O)[O-])cc1N(CC(=O)O)S(C)(=O)=O | 14.7%
COc1ccc(O)c(-c2cc(-c3cccc(Br)c3)n[nH]2)c1 | 7.15%
CC(CCc1ccccc1)NC(=O)CNC(=O)c1ccccc1Br (centres unmarked) | 8.29%
O=C(CCC(=O)c1ccc(F)cc1)Nc1cccc(C(F)(F)F)c1 | 13.1%
CS(=O)(=O)N1CCCC(C(=O)NCCN2CCC(Cc3ccccc3)CC2)C1 (centres unmarked) | 4.48%
O=C(COC(=O)Cc1ccc(Br)cc1)NC1CCCCC1 | 6.19%
CCOC(=O)N1CCc2c(sc3nc4n(c(=O)c23)N=C(c2ccc(OC)cc2)CS4)C1 | 13.3%
CC1(C)CC(=O)C2=C(C1)N(CC1CCCO1)C(=O)C2(NC(=O)c1cccnc1)C(F)(F)F (centres unmarked) | 6.32%
Cc1cccc(Cl)c1NC(=S)N1CCN(c2ccc([N+](=O)[O-])cn2)CC1 | -0.825%
Br.COc1ccc(-n2cc(-c3ccc(Cl)cc3)[nH]c2=S)cc1 | 8.55%
COc1ccc(-c2nnc(SCC(=O)N3CCCCC3)o2)c(OC)c1 | 9.16%
Cc1cc(C)cc(OCc2nnc(SCC(=O)N3CCN(c4ccccc4)CC3)o2)c1 | 7.04%
COc1ccc(S(=O)(=O)N2CCN(c3ccccc3)CC2)cc1C(=O)N1CCCC1 | 4.29%
N#CC1=C(N)Oc2n[nH]c(-c3cccs3)c2C1c1ccccc1C(=O)O (centres unmarked) | 4.41%
C=CCc1ccc(OCC(O)CN2CCN(Cc3ccc(Cl)cc3)CC2)c(OC)c1.Cl (centres unmarked) | -55.3%
COC(=O)C1=C(CSc2nccn2C)NC(=O)NC1c1cc(C)ccc1C (centres unmarked) | 8.84%

SMILES | hERG current change (%, negative = inhibition) at 1uM
CCc1ccc(OCC(=O)NNC(=O)C2CCN(c3ncnc4sc(C)c(C)c34)CC2)cc1 | 11.3%
Cc1ccc(C(C(=O)NCc2ccc(F)cc2)N(C(=O)c2csnn2)C2CC2)o1 (centres unmarked) | -13.6%
COc1cc(OC)cc(C(=O)N2CCC(N3CCCCCC3)CC2)c1 | -2.49%
COCCn1c(Cc2cccn2C)nnc1SCC(=O)NCc1ccc2c(c1)OCO2 | 10.4%
Cn1c(=S)c2[nH]c(SCCN3CCCC3)nc2n(C)c1=O | 12.2%
O=C(Nc1ccc(C(=O)N2CCOCC2)cc1)c1cc(-c2cccnc2)nc2ccc(Br)cc12 | 5.09%
CC(C)C(=O)Nc1ccccc1C(=O)OCC(=O)c1ccc2c(c1)OCCO2 | -3.04%
COc1ccc(C(=O)OC2CC3CCC(C2)[N+]3(C)[O-])cc1OC (centres unmarked) | 10.2%
O=C(Cc1cccc(F)c1)Nc1ccc2c(c1)CCC2 | 20.8%
O=S(=O)(Nc1cccnc1Cl)c1ccc2c(c1)OCCO2 | 13.9%
COc1ccc(-c2cc(C(=O)Nc3cc(Cl)ccc3OC)no2)cc1 | 18%
O=C(NCCN1C(=O)C2C3C=CC(C3)C2C1=O)NCc1ccccc1 (centres unmarked) | 11.6%
COc1cc(NC(=O)CN(c2cc(C)cc(C)c2)S(=O)(=O)c2c(C)[nH]c(=O)[nH]c2=O)cc(OC)c1 | 3.15%
Cc1ccc(N(C(=O)CCCC(=O)Nc2ccccn2)C(C(=O)NC2CCCC2)c2ccc(O)cc2)cc1C (centres unmarked) | 12%
O=C(COc1ccc2c(c1)CCC2)NCc1ccccc1 | 2.11%
CCOc1ccc(N=Nc2c(C)[nH]n(-c3ccccc3)c2=O)cc1 | 19.8%
CN=CC1=C(O)CC(C)(C)CC1=O | 11.9%
C=CCN(c1ccccc1C(=O)O)S(=O)(=O)c1ccc(NC(=O)OC)cc1 | 7.24%
Cc1ccc(C)c(N2CCN(C(=O)c3cccn4c(=O)c5sccc5nc34)CC2)c1 | 3.84%
O=c1c(Cc2c(F)cccc2Cl)c(O)ccn1Cc1ccc2c(c1)OCO2 | 10.8%
NC(=O)NCCCC(NC(=O)c1ccc(C#CC2(O)CCCCC2)cc1)C(=O)O (centres unmarked) | 8.16%
Cc1ccc(-c2csc(NC(=O)CN3CCOCC3)n2)cc1 | 4.56%

SMILES | hERG current change (%, negative = inhibition) at 1uM
O=[N+]([O-])c1ccc(N2CCN(S(=O)(=O)c3ccccc3)CC2)cc1NCc1cccnc1 | 5.1%
O=C(N/N=C1/CCSC1)c1cc(Br)ccc1O | 15.3%
Cc1cc(C)c(OCC(=O)Nc2cc(C(=O)O)cc(C(=O)O)c2)cc1C | 28.2%
Cc1ccc(F)cc1NC(=O)c1cccc(N(C)C)c1 | -2.18%
COC(=O)CC1Sc2ccccc2NC1=O (centres unmarked) | 11.1%
COc1ccc(CCNC(=O)COC(=O)Cc2ccc(OC)cc2)cc1 | 9.03%
CCCc1ccc(C(=O)NNC(=O)c2ccc(Cl)cc2)cc1 | -1.76%
Cc1ccc(NC(=O)Cc2cc(C(=O)O)c3ccccc3n2)c(C)c1 | 8.8%
Cc1cccc2c(=O)c(C(=O)NCCCN3CCOCC3)c[nH]c12 | 8.52%
CCOC(=O)CC1C(=O)NCCN1C(=O)c1ccc(Cl)c(Cl)c1 (centres unmarked) | 15.7%
Cn1cccc1CC(=O)NNC(=O)Nc1cccc(Cl)c1 | 1.24%
COCCN1Cc2cccc(C(=O)Nc3ccc(S(=O)(=O)N4CCCCCC4)cc3)c2C1=O | 15.3%
Cc1ccnc(NC(=O)Cn2cc([N+](=O)[O-])cn2)c1 | 10.4%
Cc1ccc(C(=O)Nc2cccc(C(F)(F)F)c2)cc1NC(=O)c1csc(-c2ccncc2)n1 | -17.1%
Cc1ccc(O)c(CNc2nccs2)c1 | 10%
CCOC(=O)c1ccc(COc2nc3ccccc3nc2-c2ccccc2NC(C)=O)o1 | 8.92%
Cc1cccc(N2CCN(C(=O)c3ccc(Cl)c(NC4=NC5CS(=O)(=O)CC5S4)c3)CC2C)c1 (centres unmarked) | 13.5%
COC(=O)C1=C(c2ccc(F)cc2OCc2ccccc2)C[C@@H]2CC[C@H]1N2C(=O)NCc1ccc(OC)cc1 | 11.1%
CCOc1ccc(-c2c(C(=O)N/N=C(\C)c3cccnc3)nnn2-c2nonc2N)cc1 | 19%
CN1Cc2sc(NC(=S)NC(=O)c3ccccc3)c(C#N)c2CC1(C)C | -2.86%
Cc1ccc(C)c(OCC(=O)Nc2nonc2NC(=O)COc2cc(C)ccc2C)c1 | -20.6%
O=C(CCN1C(=O)C2C3C=CC(C3)C2C1=O)Nc1ccc2ncccc2c1 (centres unmarked) | 18.8%

SMILES | hERG current change (%, negative = inhibition) at 1uM
Cc1ccc(-c2nnn(CC(=O)Nc3nnc(C(C)C)s3)n2)cc1 | 9.97%
O=C(COC(=O)CCC(=O)c1cccs1)NC(=O)c1ccc(OC(F)F)cc1 | 10.9%
Cc1ccc(C(=O)Cc2cc3ccccc3oc2=O)c(C)c1 | 12.7%
COc1cc(NC(=O)CCNS(=O)(=O)c2cc(Br)cnc2N)cc(OC)c1 | 15.4%
Cc1noc(C)c1COc1ccc(C(=O)OC(C)C(=O)Nc2ccc(N3CCOCC3)cc2)cc1 (centres unmarked) | 11.3%
COc1ccc(CCNc2oc(COc3ccccc3F)nc2C#N)cc1 | 5.07%
c1cncc(-c2nc3ccccc3s2)c1 | 5.73%
O=C(COC(=O)c1cnccn1)Nc1ccc(Cl)cc1C(F)(F)F | -5.39%
CCNC(=O)CN(C1CCCCC1)S(=O)(=O)c1ccc(F)cc1 | 5.37%
Cc1c(/C=N/NC(=O)c2cccnc2)cc(C#N)n1C | 13.7%
Cc1cc(C)c(S(=O)(=O)/N=C2\C=C(Nc3ccc(C(=O)O)cc3)C(=O)c3ccccc32)c(C)c1 | 7.5%
COc1ccc(CCNCc2ccc(OCc3ccc(Cl)nc3)c(OC)c2)cc1OC.Cl | -40.8%
COc1ccc2[nH]c3c(c2c1)CCN1C(=O)N([C@@H](C)C(=O)NCc2ccc(C)cc2)C(=O)[C@]31C | 6.3%
CSCCC(NC(=O)c1ccccc1)C(=O)N1CCN(C(C)=O)CC1 (centres unmarked) | 13.8%
CN(N)C(=S)NCc1ccccc1 | 9.42%
Cc1ccc(S(=O)(=O)N2CCOCC2)cc1C(=O)O | 7.46%
CCN(CC)S(=O)(=O)c1ccc(OCC(=O)NCc2ccccc2)cc1 | 4.04%
CSc1nsc(SC)c1NC(=O)OCCc1ccccn1 | -0.591%
CCOC(=O)c1nn(-c2ccc3c(c2)CCN3C(C)=O)cc1O | 11.4%
CC(=O)Nc1cccc(NC(=O)CSc2nc(C)c(C)c(C)c2C#N)c1 | 12.8%

— PMC4336329 (PLoS ONE, 2015)
